Assay results reported in paper PMC4336329 (PLoS ONE, 2015).
The campaign covered roughly 310,000 compounds. About 2,200 (0.71%) showed an effect of 50% or more. Effects have a minus sign here. The list shows a part of the results.

These compounds were tested against human ether-à-go-go-related gene (hERG) potassium channel (human, UniProt Q12809) (assay: primary screen, population patch clamp on CHO cells stably expressing hERG).
Chain of human ether-à-go-go-related gene (hERG) potassium channel (Q12809 whole entry, looked up): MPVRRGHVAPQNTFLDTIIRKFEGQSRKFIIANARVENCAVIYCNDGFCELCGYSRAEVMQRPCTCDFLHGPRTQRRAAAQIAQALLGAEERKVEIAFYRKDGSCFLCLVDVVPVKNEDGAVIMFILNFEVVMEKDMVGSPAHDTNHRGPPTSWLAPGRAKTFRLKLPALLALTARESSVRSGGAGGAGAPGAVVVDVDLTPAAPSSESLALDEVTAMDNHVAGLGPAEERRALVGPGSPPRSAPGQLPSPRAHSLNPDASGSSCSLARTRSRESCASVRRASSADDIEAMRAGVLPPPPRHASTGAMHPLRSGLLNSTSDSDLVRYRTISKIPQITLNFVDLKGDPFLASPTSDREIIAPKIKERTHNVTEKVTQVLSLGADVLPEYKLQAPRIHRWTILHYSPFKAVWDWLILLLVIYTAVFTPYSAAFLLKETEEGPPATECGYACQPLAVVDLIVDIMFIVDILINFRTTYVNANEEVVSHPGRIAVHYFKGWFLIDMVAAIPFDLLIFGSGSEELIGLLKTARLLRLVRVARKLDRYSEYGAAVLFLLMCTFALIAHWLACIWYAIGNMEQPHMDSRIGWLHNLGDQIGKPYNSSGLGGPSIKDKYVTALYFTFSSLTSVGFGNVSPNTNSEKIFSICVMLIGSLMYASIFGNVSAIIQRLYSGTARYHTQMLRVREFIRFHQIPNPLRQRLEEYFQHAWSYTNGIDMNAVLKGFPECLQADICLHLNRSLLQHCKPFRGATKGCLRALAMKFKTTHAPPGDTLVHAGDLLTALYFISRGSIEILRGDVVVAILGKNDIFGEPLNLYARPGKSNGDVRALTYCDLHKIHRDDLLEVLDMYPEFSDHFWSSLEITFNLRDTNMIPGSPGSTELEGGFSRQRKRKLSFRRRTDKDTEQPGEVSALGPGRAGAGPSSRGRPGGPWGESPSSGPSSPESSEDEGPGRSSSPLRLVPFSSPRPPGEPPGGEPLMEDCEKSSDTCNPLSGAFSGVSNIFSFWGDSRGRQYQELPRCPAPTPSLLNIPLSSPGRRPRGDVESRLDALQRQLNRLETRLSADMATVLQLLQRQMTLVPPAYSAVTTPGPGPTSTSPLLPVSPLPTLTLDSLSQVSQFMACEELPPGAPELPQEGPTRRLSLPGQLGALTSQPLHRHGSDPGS

Structure (SMILES)	hERG current change (%, negative = inhibition) at 1uM [%]
Cc1ccc(NC(=S)Nc2ccc(S(=O)(=O)N3CCOCC3)cc2)cc1S(=O)(=O)N1CCOCC1	-0.299
O=C(CN1C(=O)C2C3C=CC(C4CC34)C2C1=O)Nc1cnc2ccccc2c1 (centres unmarked)	7.53
COc1cccc(/C=N/NC(=S)NC2CC3CC2C2C=CCC32)c1O (centres unmarked)	13.3
Cc1cccc(C)c1NC(=O)CN(C)CC(=O)Nc1ccccc1Br	10.2
O=C(N/N=C\c1ccccn1)c1ccccc1O	13
COc1ccc2nc(SCc3cnc(C)nc3N)[nH]c2c1	4.25
c1ccc2[nH]c(CCCc3nc4ccccc4[nH]3)nc2c1	11.1
COc1ccc(C2C(C(=O)N3CCOCC3)=C(C)NC3=C2C(=O)CC(C)(C)C3)c(OC)c1 (centres unmarked)	-8.13
CC(=O)Nc1ccc(NC(=O)CSc2nnc(-c3cccs3)n2C)cc1	11
COc1ccc(C(=O)NC(C)c2cnn(-c3ccccn3)c2C)o1 (centres unmarked)	-1.43
Cc1c(NC(=O)c2cc(-c3ccc(Cl)c(Cl)c3)on2)c(=O)n(-c2ccccc2)n1C	-2.05
O=C(c1ccco1)N1CCN(Cc2nnnn2C2CCCCC2)CC1	9.48
Cc1ccc(-n2cc(CN3CCC(CO)(Cc4ccccc4)CC3)cn2)cc1	-22
COc1ccc2c(c1)-c1nc(/N=C/c3ccc(O)cc3)sc1CC2	5.03
C=CCn1c(-c2ccoc2C)n[nH]c1=S	8.26
COC(=O)c1oc(-c2ccccc2)nc1C	34.4
CC(=O)N1CCN(C(=O)c2ccc(S(=O)(=O)Nc3ccccc3C)cc2)CC1	-1.33
O=c1cc(CCl)nc(Cc2c(Cl)cccc2Cl)[nH]1	14.8
O=C(N/N=C/C(Cl)=C/c1ccccc1)c1ccc2c(c1)OCO2	9.28

Structure (SMILES)	hERG current change (%, negative = inhibition) at 1uM [%]
Cc1ccc(NC(=O)c2sc3ccccc3c2Cl)nc1	8.41
C/C(=N/NC(=O)C1COc2ccccc2O1)c1ccco1 (centres unmarked)	8.7
Cc1nc2nc(SCc3ccccc3)[nH]n2c(=O)c1C	6.36
COc1ccccc1C(=O)Nc1ccc(-c2nnn(CC(=O)NCc3ccco3)n2)cc1	13
Fc1ccc(/C=N/n2c(-c3cccs3)n[nH]c2=S)cc1	16
Cc1cc(C)c(S(=O)(=O)N2CCOC2CNC(=O)C(=O)NCCc2c[nH]c3ccccc23)c(C)c1 (centres unmarked)	11.2
O=C(N/N=C/c1ccc([N+](=O)[O-])cc1)c1cc2ccccc2o1	14.8
O=c1nc(NCc2ccco2)sc2ncccc12	8.47
Cc1cc(Cl)ccc1NC(=O)CN1CCN(C(=O)c2ccco2)CC1	-57.1
CCN(CC)S(=O)(=O)c1ccc(C(=O)NCC(=O)NC2CC2)cc1	3.22
CC1CC(C)CN(CCCNC(=O)COc2cc(=O)n(C)c3ccccc23)C1 (centres unmarked)	10.1
Oc1ccc(/C=N/Nc2cc(N3CCCC3)nc(N3CCCC3)n2)cc1O	11.8
COc1ccc(-n2nnc3c(SCC(=O)Nc4ccccc4F)ncnc32)cc1	13.2
COc1ccc(N2CCN(CC(=O)Nc3cccc(S(=O)(=O)N4CCOCC4)c3)CC2)cc1.Cl	6.26
Cc1[nH]c2ccccc2c1C(=O)CSc1nccc(=O)[nH]1	18.2
CCOc1ccc(OCCCCOc2ccccc2C(C)=O)cc1	0.463
COc1cccc(-c2cc(C(=O)NC3CCCC3)c3ccccc3n2)c1	5.18
COc1ccc(OC)c(NS(=O)(=O)c2cccc3cccnc23)c1	18.4
COC(=O)N/N=C/c1ccc(-c2cc(Cl)ccc2Cl)o1	-8.49

Structure (SMILES)	hERG current change (%, negative = inhibition) at 1uM [%]
Cc1ccccc1-n1c(SCC(=O)NCc2cccs2)nnc1-c1ccncc1	3.24
COc1cc2c(cc1OC)[C@@H]1Cc3cc4c(cc3[C@H](C2)N1C)OCO4.Cl	1.43
CS(=O)(=O)N(CC(=O)N1CCOCC1)c1ccc2c(c1)OCO2	17.6
CC(C)N1C(=O)c2ccccc2C1C(=O)NC1CCCCCC1 (centres unmarked)	4.81
CC(C)CC(C(=O)NC(C)(C)C)N(CC1CCCO1)C(=O)c1snc(C(N)=O)c1N (centres unmarked)	10.5
COc1ccc(OCc2cc(C(=O)N(C)C3CCOC3)no2)c(Cl)c1 (centres unmarked)	3.45
Cc1c(Nc2nc(-c3cccc([N+](=O)[O-])c3)cs2)c(=O)n(-c2ccccc2)n1C	8.43
Cc1ccc(C(=O)N2CCCC(N3CCN(c4ccccc4F)CC3)C2)s1 (centres unmarked)	6.32
CCCCN(CC)S(=O)(=O)c1ccc(C(=O)Nc2nnc(-c3cccs3)o2)cc1	3.5
O=C1/C(=C/N(C(=O)c2ccco2)c2ccc(Cl)cc2)Sc2ccccc21	7.25
O=C(NCc1nnc(SCC(=O)N2CCc3ccccc32)o1)c1ccco1	14.2
COc1ccc(C(=O)O/N=C2\CCCc3nonc32)cc1	19.8
CCOC(=O)C1=C(CS(=O)(=O)c2ccc(C)cc2)NC(=O)NC1c1cc(OC)c(O)c(OC)c1 (centres unmarked)	9.43
O=C1C2CC=CCC2C(=O)N1c1n[nH]c(Cc2ccccc2)n1 (centres unmarked)	10.6
Cc1ccc(NC(=O)C/C(N)=N/OC(=O)Nc2cccc(C)c2)cc1	5.89
Cc1ccc(NC(=S)N(C)N)cc1Cl	25.7
Cc1noc(C)c1COc1ccc(C(=O)OCC(=O)N2c3ccccc3NC(=O)C2(C)C)cc1	11.5
CCOC(=O)C1CCN(C(=O)c2ccccc2Oc2ccccc2)CC1	-4.93
